Measurements as given in publication PMC6212790.
This is one part of the list. At the low end of the ranking the order means little.

What follows are sequences tested against T1, GST-Rok (full length) (UniProt O34857) (assay: protein binding microarray). Conditions: Rok is a gene silencer of Bacillus subtilis; high values mean tight binding; most listed sequences are background and not binding sites; double strand, one strand shown.
T1 sequence: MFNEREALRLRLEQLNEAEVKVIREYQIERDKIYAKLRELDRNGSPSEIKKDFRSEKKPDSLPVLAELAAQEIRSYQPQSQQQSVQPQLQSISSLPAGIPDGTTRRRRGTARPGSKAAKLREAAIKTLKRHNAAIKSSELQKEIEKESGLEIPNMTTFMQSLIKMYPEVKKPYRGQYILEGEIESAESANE
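Note: rank score from −0.5 (least bound) to 0.5 (best bound).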

Sequence	binding signal [E-score]
CCGACCGG	-0.328
GCGTAACC	-0.0842
CGGCGCTA	0.0242
GGGGAGTA	-0.322
CCCGCAGA	-0.319
CAGAATGA	0.0403
CTACCGTC	0.292
TCGCTCCA	-0.17
CTCTAAAA	-0.0618
CGCAGTAC	-0.0857
GCCGGGCC	-0.387
ATGAGCAG	0.0195
AGCTCACA	0.046
AGAGAAAA	0.0804
CACGGGTA	-0.0654
AAACCTTG	-0.08
GAAGAGTA	0.266
ATGGTGAC	-0.134
TAGCTCCA	0.0619
AGATCGGG	-0.152
ACTCGACC	-0.105
CTAGCCGA	-0.199
CCTGGAGA	-0.166
TCATTACA	0.288
GGTCACAC	-0.237

Sequence	binding signal [E-score]
CTTGAACA	-0.0935
ACTGGTAC	0.152
AACGGTAA	0.258
ACCCCTGG	-0.181
CTCCCAAA	-0.262
GCACCGCA	-0.101
GGCAGCCA	-0.303
AACTATGT	0.249
CTTACATC	0.134
GCCAGCAC	-0.161
AATTTGCT	0.143
GTAAAGCA	0.122
CTGAGGGC	-0.398
CGTGAACG	-0.114
TTAAGCAA	0.0968
CATGATGG	-0.0546
CGTGCAAC	0.00648
TACATAGA	0.189
GCACCTGC	-0.304
ATGTAAGG	-0.097
CCCAAGTA	0.0557
AGATGCAT	0.0869
GCCGAGAA	-0.0654
AGCTTCCC	-0.227
CCACGTTC	-0.148

Sequence	binding signal [E-score]
ACTGTAGG	0.21
GGTCCAAA	-0.0963
TCCGCCCA	-0.309
ATATGTTA	0.395
ACCGTATA	0.212
GAGCCAAC	-0.28
AAATAACG	0.161
ACACAACA	0.07
ACAAACGA	0.0582
CCCCTGCC	-0.428
ACAGAGCT	0.014
GCGTCAGA	-0.0609
ATAGGACC	0.0661
CAGTAACA	0.0586
CTGGAACA	-0.0188
AGCGGTCG	-0.199
CAGAAAAG	0.0786
GAACCAAA	-0.168
GATGAAAC	-0.0235
TCTAGCCA	0.0153
CATAACGG	0.000347
TCAGTAGA	0.168
CCTCTATA	0.0395
GGACAATA	-0.00756
GTCTTGTA	0.112

Sequence	binding signal [E-score]
AGTTGCAA	0.224
CACTAGAG	-0.0165
GTCAGCAA	-0.0851
CACGAAAA	-0.0543
TGGATACA	0.0909
CTGGACGA	-0.185
CTGGAAAA	0.00214
GATCTACA	0.369
CCAGAAAG	-0.134
GCCCTCGC	-0.356
CGGAGTTA	-0.0511
AGCCAAGG	-0.236
CTAAGCGC	-0.287
GACGGCCA	-0.223
CCTGCTTA	-0.0682
ATAGAGCA	-0.0567
CAGTGCCA	-0.063
ATCAGCAT	0.0127
CGTTAGTA	0.294
GATTAGCA	-0.0882
AGCAGGGA	-0.258
AATAACTG	0.195
AATGAGGA	-0.277
ACTGGCCT	-0.307
ATGGCTAC	-0.041

Sequence	binding signal [E-score]
AGTAACAT	0.242
CAGTCAAA	-0.0848
AAACACAT	0.0776
AGATGGCA	-0.192
CGCAATTC	0.137
CACTAGTA	0.205
ACATTAGC	0.0617
AATAATTA	0.271
AAACTACC	0.475
TCCTGAGA	-0.138
GCCCCTTA	-0.367
AGTTTCCC	-0.106
ACGATTTA	0.205
GGGTAGCA	-0.00107
AAGAAGGT	-0.0806
CACACTAC	0.276
AGAAACGC	0.00202
ATCTTTAC	0.185
TAGGAAGA	0.116
CTAGGTAC	0.156
GGAGACCA	-0.109
AGTACGTG	0.0625
ATCACCGG	-0.0846
ATTTAAAG	0.00886
GACCTTAA	0.0835

Sequence	binding signal [E-score]
ACCTACTC	0.0245
CTCCTCTC	-0.241
ACGTGTGA	0.065
CGCGCCCC	-0.376
AGGGCGGA	-0.341
CTTCTACA	0.312
CTAGATTC	0.209
GCCTAACA	-0.0735
CGTACAAG	0.121
AATTCTCA	0.0302
GGCTTTCA	-0.186
GAGTTCGC	-0.0601
ACTATAAG	0.268
CAATCATC	-0.219
CATGTCTC	-0.079
TATAACCA	0.27
CGCGCTAG	-0.013
CTTTGTCC	-0.1
AAGTTAGC	0.0629
GGAACGGA	-0.372
GGAGTAAA	-0.112
TGGCTAAA	0.0785
GACAGGGA	-0.0461
GGTGAGAC	-0.0921
AAGAGGTG	0.0615

Sequence	binding signal [E-score]
GGGATCGA	-0.152
AGGTTTGA	-0.0183
AGCAGGGG	-0.17
AAACCGCG	-0.0168
ACTCATAA	0.0503
AAACCTCT	-0.01
AACGACGG	-0.036
AAGAGCCC	-0.349
CGCGGGCA	-0.233
CAAGGTTC	-0.152
GACAAATC	-0.0534
CCGCGACA	-0.0846
CGACGCCC	-0.42
TCTCGAGA	0.0626
GATCGTAC	0.097
ACCCATGC	-0.259
CACCGATG	-0.0374
CCTTACCG	0.0725
ACTCCAAT	0.00426
CGGTACGA	-0.191
CAAATCGA	0.0608
ACACTAAG	0.0184
CACTCATG	-0.211
GAACAAGA	-0.0934
ATCTCTAA	0.0544

Sequence	binding signal [E-score]
AAGCGATG	-0.0486
GATGTACA	0.282
AGCGCAGA	-0.24
AGAAGTTG	0.0065
AGAAATCG	-0.0862
ACTGCTCC	-0.0985
ATGTGAAA	0.138
AAGATTCG	-0.0404
ACCAGTAG	0.308
ATCCAAGG	-0.172
CGGAGAGA	-0.157
GAGTATAC	0.223
ACGGCTAG	0.129
CCCTGCGG	-0.313
GTAAGAGA	-0.0178
GGCTGTAA	0.115
AGTCGAAT	-0.204
AACTATCA	0.417
CTGCCTTC	-0.18
CCCAACGG	-0.0858
ATTTGGCA	-0.0153
GAGTCCAC	-0.263
GACTAACA	-0.064
CTCCTTTA	-0.314
GATAGCAC	0.149

Sequence	binding signal [E-score]
ACAAGGTC	-0.165
AGAAGCCT	-0.216
GTGGTAAC	0.0764
AATCCGAC	-0.25
ACCGTTGG	-0.187
AAACTGGT	0.0427
AATCCACA	0.118
CGACCCCC	-0.316
ACTGTCGC	-0.108
CATTAATC	0.219
CTGAACTA	0.203
CGAACAAC	-0.0234
AGCTCAAG	-0.0985
TGCTTCCA	-0.351
CGTCATGA	-0.0325
ACCCTCGG	-0.309
TTCAAAAA	-0.0631
AAGGACAT	-0.14
CGGTCTAC	0.00728
CGTGCGAC	-0.0915
GAGTTGGA	-0.223
ATTCCTCC	-0.212
ATGCAACC	-0.0472
CCGCTTAC	-0.11
CACACCCC	-0.447

Sequence	binding signal [E-score]
CATTTGAA	-0.0598
CTTATATC	0.141
CATATTTA	0.324
CCCTGGTA	-0.12
ATCCGGTA	0.137
CTTAGATC	-0.00626
ACATCTAC	0.272
ATATCTGC	0.221
GAGGCTGA	-0.241
GATTCCTA	0.224
CAGATAAC	0.0882
ACCCAGCC	-0.174
GCTGTATA	0.000472
GGGGTACA	-0.0851
CAGCTTCC	-0.172
GCGGTTAC	-0.338
AGCTGCCT	-0.125
AGTAATAC	0.26
AGCGCAAG	-0.0658
ACCCATAG	0.0239
CACTCTGC	-0.276
GATTTTTA	0.114
CAGTGCGG	-0.0903
AGACATAG	0.0456
AAATCAAA	-0.0854

Sequence	binding signal [E-score]
ACCGTTAG	0.0212
CGTCCGAG	-0.129
TAATGACA	0.242
ATATACCC	0.188
GATTCGCA	-0.138
AAGGTCGT	-0.211
GAGGATGC	-0.247
CACCAGCA	-0.118
CGCGGCGC	-0.264
AAGAGGAC	-0.223
ATCCGTTA	0.028
CTGCTTTC	-0.273
CTTAAACA	-0.101
CGAAGATA	0.283
AACGCACC	-0.131
AAGTTAGA	0.149
CTCGATAC	-0.0192
CATCAATG	-0.0561
AACGAGCG	-0.28
ATCACTGA	0.0303
TAGAACTA	0.406
GAAAACAA	0.121
ACACGTAT	0.192
ATCGCGAC	-0.046
GAACCGAC	-0.0645

Sequence	binding signal [E-score]
ACGCAGTG	-0.125
ATCAAACG	-0.0202
CCTCGAAC	-0.13
ACTAGCAA	0.282
ATTCCAAA	0.105
AAACTGAC	0.0255
CAAATCGC	0.119
AGAACGAT	0.143
ATATGCAC	0.238
TAGGACCA	-0.0862
GCGGGCTA	-0.127
GCATTACC	-0.00138
GCGTATCC	-0.124
ATCATGTA	0.262
AACTCCCA	-0.0875
TGGACTAA	0.0723
GATCGGCC	-0.109
ACTGAAAT	0.0309
AGTAGACT	0.0507
CGCGCGAG	0.0719
ACCTCGAG	-0.025
GCTGCTAA	-0.0548
AACTCCGC	-0.0584
GGACACCA	-0.155
CGGTTAAA	0.0392

Sequence	binding signal [E-score]
ACCAGGGA	-0.197
ATCCCGTA	0.126
AATTGATC	0.162
GCCAAAAA	-0.174
ACAGAGGA	-0.0647
AGAAAACC	-0.176
AAGTGTTG	0.0958
AGACTACG	-0.152
GTCAAACA	0.122
GGGGACCA	-0.293
CATGGAAC	0.0312
AGAGATAA	0.125
GTATCCGA	0.0485
AGTGGAAG	-0.131
ACCTAGGC	-0.176
GAAGTAGC	0.182
GATTAACA	0.0979
CTCTACAC	0.0962
CTTAGGAC	-0.123
ACGCGTCC	-0.141
CACCGATA	0.13
ACCGGCAA	-0.0643
GCTCGTGA	-0.283
GCATATGA	0.0258
ACCATTCC	0.0574

Sequence	binding signal [E-score]
ATATGATC	0.197
TCCTAAAA	0.13
CGAATAAC	0.0626
AAGGATCC	-0.0838
AACGAAGT	-0.0427
ATCGCGGC	-0.0451
AAGCGTGC	-0.212
ACTATCCC	0.0628
GTTGCGCA	0.0181
GGGGGAAA	-0.199
ATAGCTCA	0.148
TGCCATAA	0.0385
CTACTGAG	0.104
ATCGCCAG	0.112
ATAACAAC	0.153
ACGATATG	0.103
AGTGATTC	-0.0869
CTTCAGGC	-0.172
ACATTAAA	0.108
